Screen size: about 150,000 compounds; about 540 (0.36%) showed an effect of 50% or more. This is one part of the list.
test system: Plasmodium falciparum; assay: Primary screen in NF54 nanoGlo assay, in single point, at 2uM, 72h; a lower Z score goes with more inhibition; assay type: functional, Erythrocyte; conditions: timepoint 72 hour

Compound	% Inhibition	Z score
CCCN(CCc1cccs1)C(=O)CCc1cscn1	-14%	1.18
CC(C)N(C(=O)CN1C(=O)C[C@H](N(C)C)C1=O)C(C)C	2%	-0.31
Cc1cccc(C2CC2C(=O)N2CCC3(C2)NC(=O)NC3=O)c1 (stereo unspecified)	-6%	1.16
O=C(O)c1ccc2c(c1)CCCN2S(=O)(=O)c1cnc(C2CC2)s1	-4%	0.7
Cc1ccc2c(Nc3cc(Cl)ccc3F)c(C(=O)N3CCCC3)cnc2n1	-8%	1.27
CCN1CC(=O)N[C@H]2CN(C(=O)c3cnc(NC(C)C)nc3)CC[C@@H]2OCc2cccc(c2)Oc2cc(OC(C)C)cc(c2)C1=O	7%	-0.83
CC(C)NC(=O)[C@@H]1C[C@H](N)CN1C(=O)c1cc2ccccc2s1	1%	-0.08
COc1ccc(OC)c(CNC(=O)c2ccc(Oc3nccnc3N3CCOCC3)cc2)c1	8%	-1.27
CCc1noc(C)c1C(=O)NC1CCC(CC)CC1 (stereo unspecified)	-3%	0.34
COc1ccccc1/C=C/CN1CCC2(CC1)C(=O)NCCN2C	10%	-1.83
COc1ccc2cc1OCC(=O)N[C@@H](C)C(=O)N(C)CCCCN(C(=O)c1cc(Cl)ccc1OC)CCCNC(=O)CC2	-6%	0.7
Cc1[nH]ncc1CCCNc1ccc(Cl)c(C#N)n1	1%	-0.11
CC(C)c1nncn1CCNc1nc(C(F)(F)F)ns1	-7%	1.2
CCOC1CC(O)(CNC(=O)c2c(C)noc2C)C1(C)C (stereo unspecified)	-4%	0.43
Cc1ccc(-c2onc(C)c2C(=O)Nc2ccccc2F)cc1	4%	-0.43
Cc1noc(C(F)F)c1C(=O)N[C@H](c1ncccn1)C1CC1	1%	-0.23
CCn1ccnc1[C@H](C)NC(=O)c1ccc(Cl)c2occc12	-1%	0.13
COc1nn(C)cc1C(=O)N1CCN(c2ccc(-c3noc(C)n3)cn2)CC1	2%	-0.23
CC(C)Cc1nsc(N2CCN(c3cnn(C)c3)C(=O)C2)n1	-2%	0.34
CC1CCN(c2nc(N(C)Cc3ccccc3)nc3c2CN(C(=O)OCc2ccccc2)CC3)CC1	-2%	0.28
Cc1ccc2nc(N3CCC[C@H](O)C3)c(CN3CCC(F)CC3)cc2c1	-5%	0.48

Compound	% Inhibition	Z score
CCc1nc(OCC(=O)N[C@@H](C)c2ccccc2)c2c(C)c(C)oc2n1	11%	-1.53
CCCCCC(=O)NCCNC(=O)c1ccc(C)nc1	-3%	0.44
Cc1ccc(C)n1CC(=O)N1CCC[C@H](c2nnc3ccccn23)C1	-5%	0.61
CCn1c(=O)c(C)nc2cc(-c3noc([C@H](C)NS(=O)(=O)c4ccc(C)cc4)n3)ccc21	-4%	0.42
Cc1ccc(=O)n(CCNC(=O)c2cc(OCc3ccccc3)ncn2)n1	-16%	2.98
COc1ccc2nc(C)c(C(=O)N3CC(OCC(F)F)C3)n2n1	37%	-5
CCN(Cc1ccoc1)C(=O)NCc1ccc(OC(F)F)cc1	-5%	0.62
CCCc1cc(Cn2ccnc2-c2ccc(-c3cc[nH]n3)o2)on1	-5%	0.85
Cc1ccccc1CC(=O)Nc1ccnn1C1CCCC1	-3%	0.53
O=C(CCc1cccs1)NCc1nnc2ccccn12	16%	-1.84
CCOC(=O)Cn1cnc2c1c(=O)n(CCc1ccccc1)c(=O)n2-c1ccccc1	-16%	1.95
O=C(Cc1cccs1)Nc1nc(-c2ccc3c(c2)OCO3)cs1	-7%	0.94
CCN(C)c1ccnc(N2CCc3[nH]nc(-c4c(C)noc4C)c3C2)n1	-3%	0.31
O=C(c1ccc2c3c([nH]c2c1)CCCC3)N1C[C@H](O)[C@@H](F)C1	-13%	2.45
Cc1ccc(-c2ccnc3c(C(=O)NCc4cc(F)cc(F)c4)cnn23)cc1C	28%	-3.21
CCn1cc(CN2CCN(C(=O)c3ccco3)CC2)ccc1=O	-18%	1.93
COC1CCN(c2ccc(NC(=O)c3cc4c(C)cc(F)cc4[nH]3)cc2C(F)(F)F)CC1	0%	-0.05
O=C(c1ccc(F)cc1)N1CCN(C(=O)c2cc(O)cs2)CC1	-15%	2.35
COc1cc2c(cc1OC)CN(C(=O)c1ccc(S(=O)(=O)N3CCCC3)cc1)CC2	6%	-0.78
COC(=O)CN(C)C(=O)C[C@]1(c2ccccc2)CC(=O)N(CCc2ccccn2)C1=O	-5%	0.61
CCCO[C@@H](C)CNC(=O)c1oc(CC)nc1C	-3%	0.57

Compound	% Inhibition	Z score
CCN1C(=O)Cc2cc(NC(=O)COc3ccccc3OC)ccc21	2%	-0.27
Cc1ncsc1C(=O)Nc1ccc(-n2cncn2)cn1	-3%	0.42
Cc1noc(C)c1CN1CCC[C@H](C(=O)Nc2ccccn2)C1	7%	-0.88
CC1CCCC(NC(=O)NCC(=O)Nc2cccnc2)C1 (stereo unspecified)	-18%	2.72
Cn1cc(C(=O)NC[C@@H]2COc3ccccc3C2)cn1	-10%	1.18
CN1CCC[C@@H]1CCNC1CCN(c2ccc3c(c2)CCC3)CC1	21%	-2.96
CCCNC(=O)C(C)N1CCCC(C(F)(F)F)C1 (stereo unspecified)	4%	-0.51
CC(C)S(=O)(=O)N1CCC2(CC1)C[C@@H](c1ccccc1)C(=O)N(C)C2	6%	-1.23
CCN(CC)c1ccc(CN(CCN(C)C)S(=O)(=O)c2ccccc2)c(OS(=O)(=O)CC)c1	2%	-0.27
O=C(C[C@@H](c1ccccc1)c1ccc(Cl)cc1)NCc1noc(C2CC2)n1	-23%	3.65
O=C(CCc1nc(-c2ccc(S(=O)(=O)N3CCOCC3)cc2)no1)N1CCOCC1	-3%	0.3
O=S(=O)(NC(C1CC1)C1CC1)c1ccc2ccccc2c1	7%	-1.34
COCCOCC(=O)N1CCN(c2nc3nccc(-c4cccc(C(F)(F)F)c4)n3n2)CC1	-8%	1.18
Cc1nccn1C[C@H]1CCCN(C(=O)Cc2noc3ccccc23)C1	-10%	1.48
COc1ccc(CC(=O)NCc2ccc3c(c2)CCN3C(=O)c2ccc(F)cc2)cc1OC	-8%	1.52
COCC1CCCN(C(C)c2nnnn2C)CC1 (stereo unspecified)	1%	-0.1
CC(=O)N1CCN(c2ncnc(N3CCN(C(C)=O)CC3)c2C(C)C)CC1	-5%	0.63
CC(=O)NC(C)(C)C(=O)NCCc1noc(C2CCC2)n1	-16%	1.73
CCC1(CNS(=O)(=O)CCN2C(=O)CCC2=O)CC1	-14%	1.6
COc1ccc(-c2noc(-c3cccnc3N3CCN(c4ccccc4)CC3)n2)cc1	-8%	1.14
CCC1CCc2c(sc(NC(=O)CC(C)CC(=O)O)c2C(=O)NCc2ccccc2)C1 (stereo unspecified)	8%	-1.26

Compound	% Inhibition	Z score
C[C@]1(c2ccccn2)NC(=O)N(Cc2ccccc2C#N)C1=O	-15%	1.92
CCC(NC(=O)N[C@H]1CC[C@@H](C(=O)N2CCCC2)C1)C1CCCO1 (stereo partly specified)	3%	-0.49
O=C(Nc1ccc(Cl)c(Cl)c1)Nc1nc(-c2cc(Cl)ccc2Cl)cs1	0%	0.01
COc1ccc(C(=O)N2CCC3(CC2)C[C@@H](Cc2cccc(F)c2)CCO3)cc1	-18%	2.36
CCN(C(=O)CS(=O)(=O)c1ccccc1)c1ccccc1C	-15%	2.47
Cn1nc(C(=O)N2CCN(C[C@H](O)c3ccco3)CC2)ccc1=O	-16%	2.27
c1ccc(CN2C[C@H](c3ncco3)C3(CCN(CC4CCCCC4)CC3)C2)cc1	-8%	1.2
O=C1NC(=O)C2(CCN(C(=O)c3ccsc3)CC2)N1	-5%	0.66
CCc1nnc(C(C)NC(C)c2ccc(S(C)(=O)=O)c(F)c2)o1 (stereo unspecified)	1%	-0.18
CCc1nc2ccccc2c(=O)n1NC(=O)c1c(O)n(CC)c2ccccc2c1=O	1%	-0.08
COCCCN(Cc1c(-c2ccccc2)noc1N(C)C1CCCCC1)C(=O)c1ccc(C)cc1	-10%	2.01
O=C1CNc2ccc(C(=O)N3CCCC[C@H]3c3cccc(F)c3)cc2N1	-8%	1.39
CS(=O)(=O)N1C[C@H]2CC[C@@H](C1)N(C(=O)NCCc1ccccc1F)C2	-6%	0.86
CN(C(=O)N(C)[C@H]1CCS(=O)(=O)C1)C(C1CC1)C1CC1	-14%	2.36
OC1CC(c2cc(N3CCc4c(Cl)cccc4C3)ncn2)C1 (stereo unspecified)	-6%	0.98
CCCN(CCC)c1nc(-c2cccs2)nc2c1sc(=S)n2Cc1ccccc1	-8%	1.07
O=C(Nc1ccn2nccc2c1)C1CCCC1	1%	-0.2
OCCN(c1cc([C@H]2CCOC2)ncn1)C1CCCCC1	-19%	3.36
Cc1cc(CN2CCN(C)CC2)c(C)c(CN2CCCC[C@@H]2CN)c1	17%	-2.65
Cc1oc2ncn(C)c(=O)c2c1C(=O)N1CCN(Cc2ccccc2)CC1	7%	-1.14
